# Laboratory results as given in the supplement of paper PMC4967469.
# The IC50 comes from the fitted curve, where viability falls to half of the control; a limit (>, <) means that the fit lies beyond the doses tested. For AUC the same curve is integrated over the 256-fold range of doses and scaled to a fraction; it is 1 without any effect and falls as sensitivity rises. For some assays here: Where the top dose is marked as inferred, it was derived from the fitted curves, not read from the paper.
# Assays:
# Assay in all cases: Viability of human cancer cell lines after 72 h of drug (GDSC screen)
# CP724714 = compound: COCC(=O)NC/C=C/c1ccc2ncnc(Nc3ccc(Oc4ccc(C)nc4)c(C)c3)c2c1 [CP724714]; conditions: top dose 10.24 µM; top dose inferred
# Description: (§1)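 Human cancer cell lines in 384-well plates, medium with 10% serum, drug for 72 h over a 256-fold dose range (nine 2-fold or five 4-fold steps up to the top dose). Adherent lines were fixed and stained with the nucleic acid dye Syto60, suspension lines read with resazurin; signal relative to control wells, capped at 0 and 100%. One two-parameter sigmoid per drug and line, fitted in a mixed model over all curves with the slope shared within a line.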
# Obatoclax mesylate = compound: COC1=CC(c2cc3ccccc3[nH]2)=N/C1=C\c1[nH]c(C)cc1C [Obatoclax mesylate]; conditions: top dose 16 µM
# Description: as §1
# Paclitaxel = compound: CC(=O)O[C@H]1C(=O)[C@@]2(C)[C@H]([C@H](OC(=O)c3ccccc3)[C@]3(O)C[C@H](OC(=O)[C@H](O)[C@@H](NC(=O)c4ccccc4)c4ccccc4)C(C)=C1C3(C)C)[C@]1(OC(C)=O)CO[C@@H]1C[C@@H]2O [Paclitaxel]; conditions: top dose 0.1024 µM
# Description: as §1
# STF-62247 = compound: Cc1cccc(Nc2nc(-c3ccncc3)cs2)c1 [STF-62247]; conditions: top dose 10.24 µM; top dose inferred
# Description: as §1
# CX-5461 = compound: Cc1cnc(CNC(=O)c2c(=O)c3ccc(N4CCCN(C)CC4)nc3n3c2sc2ccccc23)cn1 [CX-5461]; conditions: top dose 10.24 µM; top dose inferred
# Description: as §1
Cell Line,AUC (CP724714),IC50 (CP724714),AUC (Obatoclax mesylate),IC50 (Obatoclax mesylate),AUC (Paclitaxel),IC50 (Paclitaxel),AUC (STF-62247),IC50 (STF-62247),AUC (CX-5461),IC50 (CX-5461)
"A704 (kidney, adherent)",0.989,> 10200 nM,0.18,114 nM,0.955,> 102 nM,–,–,–,–
"AM-38 (glioma, semi-adherent)",0.941,> 10200 nM,0.194,120 nM,0.988,> 102 nM,0.973,> 10200 nM,0.328,210 nM
"COLO-668 (small cell lung carcinoma, adherent)",0.967,> 10200 nM,0.319,312 nM,0.911,> 102 nM,0.989,> 10200 nM,0.979,> 10200 nM
"DOHH-2 (B-cell lymphoma, suspension)",–,–,0.115,< 62.5 nM,0.534,7.91 nM,–,–,–,–
"EJM (lymphoid neoplasm, semi-adherent)",0.992,> 10200 nM,0.446,732 nM,0.812,44.4 nM,0.979,> 10200 nM,0.96,> 10200 nM
"EW-16 (Ewing sarcoma, adherent)",0.97,> 10200 nM,0.125,< 62.5 nM,0.478,5.57 nM,0.949,> 10200 nM,0.855,8740 nM
"Farage (B-cell lymphoma, suspension)",0.98,> 10200 nM,0.176,136 nM,0.588,10.6 nM,0.98,> 10200 nM,0.879,7310 nM
"GAK (melanoma, adherent)",0.985,> 10200 nM,0.069,< 62.5 nM,0.87,87.9 nM,0.972,> 10200 nM,0.965,> 10200 nM
"GRANTA-519 (B-cell lymphoma, suspension)",0.987,> 10200 nM,0.726,4060 nM,0.735,27.6 nM,0.989,> 10200 nM,0.927,> 10200 nM
"HCE-4 (oesophagus, adherent)",0.985,> 10200 nM,0.284,272 nM,0.456,4.94 nM,0.992,> 10200 nM,0.992,> 10200 nM
"HH (T-cell leukaemia, suspension)",0.971,> 10200 nM,0.49,929 nM,0.763,49 nM,0.836,> 10200 nM,0.751,4410 nM
"HOP-62 (lung adenocarcinoma, adherent)",0.973,> 10200 nM,0.146,79.7 nM,0.591,11.3 nM,0.96,> 10200 nM,0.758,3540 nM
"IA-LM (large cell lung carcinoma, adherent)",0.979,> 10200 nM,0.149,68.6 nM,0.409,3.49 nM,0.983,> 10200 nM,0.922,> 10200 nM
"JVM-2 (lymphoid neoplasm, suspension)",0.966,> 10200 nM,0.677,3520 nM,0.953,> 102 nM,0.933,> 10200 nM,0.753,4130 nM
"KARPAS-299 (anaplastic large cell lymphoma, suspension)",0.984,> 10200 nM,0.8,6270 nM,0.828,49.1 nM,0.81,4300 nM,0.971,> 10200 nM
"KARPAS-422 (B-cell lymphoma, suspension)",0.987,> 10200 nM,0.212,145 nM,0.802,49.4 nM,0.978,> 10200 nM,0.894,> 10200 nM
"KARPAS-620 (haematopoietic neoplasm, suspension)",0.957,> 10200 nM,0.108,70.7 nM,0.438,4.44 nM,0.964,> 10200 nM,0.944,> 10200 nM
"KELLY (neuroblastoma, adherent)",0.976,> 10200 nM,0.158,102 nM,0.896,> 102 nM,0.989,> 10200 nM,0.43,421 nM
"KG-1 (acute myeloid leukaemia, suspension)",0.953,> 10200 nM,0.325,344 nM,0.99,> 102 nM,0.97,> 10200 nM,0.838,5900 nM
"KLE (endometrium, adherent)",0.927,> 10200 nM,0.529,1250 nM,0.809,96.4 nM,0.901,> 10200 nM,0.899,> 10200 nM

Cell Line,AUC (CP724714),IC50 (CP724714),AUC (Obatoclax mesylate),IC50 (Obatoclax mesylate),AUC (Paclitaxel),IC50 (Paclitaxel),AUC (STF-62247),IC50 (STF-62247),AUC (CX-5461),IC50 (CX-5461)
"KMS-12-BM (myeloma, suspension)",0.983,> 10200 nM,0.316,340 nM,0.493,6.15 nM,0.978,> 10200 nM,0.781,3500 nM
"KOPN-8 (B-cell leukaemia, suspension)",0.971,> 10200 nM,0.049,< 62.5 nM,0.554,8.76 nM,0.967,> 10200 nM,0.556,891 nM
"KY821 (leukaemia, suspension)",0.988,> 10200 nM,–,–,0.752,30.2 nM,0.959,> 10200 nM,0.934,> 10200 nM
"L-363 (myeloma, suspension)",0.98,> 10200 nM,0.243,206 nM,0.56,9.09 nM,0.911,> 10200 nM,0.908,> 10200 nM
"LOXIMVI (melanoma, semi-adherent)",0.989,> 10200 nM,0.175,121 nM,0.805,45 nM,0.988,> 10200 nM,0.968,> 10200 nM
"LP-1 (myeloma, suspension)",0.939,> 10200 nM,0.276,264 nM,0.903,93.9 nM,0.929,> 10200 nM,0.99,> 10200 nM
"LXF-289 (lung adenocarcinoma, adherent)",0.978,> 10200 nM,0.31,298 nM,0.352,2.51 nM,0.968,> 10200 nM,0.907,> 10200 nM
"ML-2 (acute myeloid leukaemia, suspension)",0.982,> 10200 nM,0.326,349 nM,0.593,11.2 nM,0.894,9900 nM,0.883,8870 nM
"MOLM-13 (acute myeloid leukaemia, suspension)",0.962,> 10200 nM,0.214,155 nM,0.497,6.29 nM,0.849,6940 nM,0.656,1680 nM
"MOLP-8 (myeloma, suspension)",0.978,> 10200 nM,0.152,89 nM,0.647,16.1 nM,0.987,> 10200 nM,0.569,983 nM
"MOLT-13 (T-cell lymphoblastic leukaemia, suspension)",0.967,> 10200 nM,–,–,0.619,13.1 nM,0.947,> 10200 nM,0.885,8800 nM
"MV-4-11 (leukaemia, suspension)",0.958,> 10200 nM,0.21,174 nM,0.459,5.07 nM,0.958,> 10200 nM,0.442,457 nM
"NCI-H226 (lung squamous cell carcinoma, adherent)",0.978,> 10200 nM,0.142,70.4 nM,0.95,> 102 nM,0.919,> 10200 nM,0.81,5750 nM
"NH-12 (neuroblastoma, adherent)",0.985,> 10200 nM,0.422,594 nM,0.983,> 102 nM,0.979,> 10200 nM,0.35,233 nM
"NOMO-1 (acute myeloid leukaemia, suspension)",0.976,> 10200 nM,0.437,655 nM,0.634,15.8 nM,0.958,> 10200 nM,0.905,> 10200 nM
"OCI-AML2 (acute myeloid leukaemia, suspension)",0.975,> 10200 nM,0.097,86.7 nM,0.537,7.85 nM,0.968,> 10200 nM,0.147,81.3 nM
"OCI-AML3 (acute myeloid leukaemia, suspension)",0.969,> 10200 nM,0.575,1550 nM,0.586,10.6 nM,0.969,> 10200 nM,0.915,> 10200 nM
"OPM-2 (myeloma, suspension)",0.988,> 10200 nM,0.409,591 nM,0.798,38.8 nM,0.97,> 10200 nM,0.829,4840 nM
"RL (B-cell lymphoma, suspension)",0.974,> 10200 nM,0.738,4470 nM,0.99,> 102 nM,0.935,> 10200 nM,0.872,8420 nM
"RPMI-8226 (myeloma, suspension)",0.987,> 10200 nM,0.39,522 nM,0.482,5.75 nM,0.984,> 10200 nM,0.731,2620 nM
